# Measured values reported in the BET-seq Pho4 binding data (Le et al. 2018).
# The list shows a part of the results. Values were computed here from the reads of four pooled replicates and scatter widely.
# Biological target: T1, Pho4 (S. cerevisiae) (UniProt P07270)
# T1 sequence: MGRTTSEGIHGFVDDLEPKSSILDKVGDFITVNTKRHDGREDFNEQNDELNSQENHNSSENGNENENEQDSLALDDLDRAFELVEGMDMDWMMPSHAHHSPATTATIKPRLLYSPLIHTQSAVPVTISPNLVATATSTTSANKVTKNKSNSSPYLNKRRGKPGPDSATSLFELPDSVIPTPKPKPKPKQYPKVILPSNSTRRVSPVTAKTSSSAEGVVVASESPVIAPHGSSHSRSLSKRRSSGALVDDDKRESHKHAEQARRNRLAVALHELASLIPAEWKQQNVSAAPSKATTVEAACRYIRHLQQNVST
# Test: relative binding free energy (BET-seq); higher = weaker binding
# Conditions: reference: library average
row,Sequence,relative binding free energy
1,TAATGCACGTGGAAGG,0.22 kcal/mol
2,ATTGTCACGTGATGCA,0.2 kcal/mol
3,TAGACCACGTGTTGTT,0.07 kcal/mol
4,ACGGTCACGTGGTCTG,0.21 kcal/mol
5,TTGCGCACGTGCAAGT,0.04 kcal/mol
6,GTGTGCACGTGTCTTA,0.08 kcal/mol
7,GTTATCACGTGAAGAA,0.4 kcal/mol
8,CGGTGCACGTGAATGG,0.29 kcal/mol
9,TGTTTCACGTGCTGAA,0.13 kcal/mol
10,AGTCACACGTGTTATT,0.12 kcal/mol
11,CGGGGCACGTGAGAAG,0.02 kcal/mol
12,TTTGTCACGTGGTGAC,0.05 kcal/mol
13,TGGAGCACGTGGATGG,-0.07 kcal/mol
14,GTCGACACGTGTAGTG,0.15 kcal/mol
15,AGTGGCACGTGCGGAT,-0.23 kcal/mol
16,AGAGGCACGTGTACTT,0.07 kcal/mol
17,TCGTTCACGTGAGGGG,0.44 kcal/mol
18,AGAAGCACGTGTTCTG,-0.02 kcal/mol
19,AGTGACACGTGATTTG,0.06 kcal/mol
20,TTGATCACGTGCGGCT,0.12 kcal/mol
21,TAGACCACGTGTGGGG,0.03 kcal/mol
22,TTCGTCACGTGAAATG,0.41 kcal/mol
23,TATATCACGTGCTGGG,0.12 kcal/mol

row,Sequence,relative binding free energy
1,TTTGTCACGTGGGCGT,0.02 kcal/mol
2,ACGTTCACGTGGGGGA,0.16 kcal/mol
3,TTTCACACGTGGAGGT,0.18 kcal/mol
4,TGCGGCACGTGTGAGC,-0.11 kcal/mol
5,TACTGCACGTGTATAT,0.05 kcal/mol
6,GAAGGCACGTGGATGC,0.04 kcal/mol
7,ATAAGCACGTGCGGGG,-0.18 kcal/mol
8,TGAATCACGTGTCGTG,0.2 kcal/mol
9,TTCAGCACGTGAATGT,0.16 kcal/mol
10,AGGAGCACGTGGGCGC,-0.28 kcal/mol
11,TTGTACACGTGGTGAT,0.09 kcal/mol
12,TAAGTCACGTGTATGT,0.01 kcal/mol
13,GTTTTCACGTGAAGGG,0.4 kcal/mol
14,GTTTGCACGTGTCTGC,0.23 kcal/mol
15,CATGGCACGTGTGGGT,0.02 kcal/mol
16,TGAGCCACGTGTTGGG,0.02 kcal/mol
17,ATTCTCACGTGTGAGT,0.15 kcal/mol
18,GTATTCACGTGACGTA,0.38 kcal/mol
19,TTGATCACGTGAGGTA,0.21 kcal/mol
20,AGGATCACGTGACGGG,0.24 kcal/mol
21,GTGTGCACGTGGGATT,-0.04 kcal/mol
22,TGTTACACGTGGCGGT,0.1 kcal/mol
23,GTTATCACGTGGCTGT,-0.02 kcal/mol

row,Sequence,relative binding free energy
1,TTGGGCACGTGAGAAA,0.16 kcal/mol
2,TCGTACACGTGTTATG,0.22 kcal/mol
3,TGAGACACGTGGTATG,-0.09 kcal/mol
4,TGGTACACGTGTTGAA,0.09 kcal/mol
5,TGTGCCACGTGATTCG,0.11 kcal/mol
6,TCGGGCACGTGCTGTT,-0.06 kcal/mol
7,ATTCTCACGTGAGTGT,0.2 kcal/mol
8,AGGCACACGTGGCGGG,-0.15 kcal/mol
9,GGGTTCACGTGTATAA,0.45 kcal/mol
10,TGTGGCACGTGTCGGA,-0.07 kcal/mol
11,TGGAGCACGTGTGCTG,0.05 kcal/mol
12,GTGTGCACGTGTGCTG,0.06 kcal/mol
13,TTGAGCACGTGAGCTG,0.08 kcal/mol
14,ATTGACACGTGAGTTA,0.07 kcal/mol
15,GAGTTCACGTGCTTAA,0.51 kcal/mol
16,TATTCCACGTGTTGAG,0.07 kcal/mol
17,TTGAACACGTGAGTTG,0.32 kcal/mol
18,TTTGACACGTGTTCTG,-0.03 kcal/mol
19,AGTAGCACGTGTATAG,-0.03 kcal/mol
20,TATAGCACGTGCTAGG,-0.21 kcal/mol
21,GAATTCACGTGGTGGT,0.28 kcal/mol
22,GAATGCACGTGTAAGT,0.19 kcal/mol
23,GAGTGCACGTGTGTAG,-0.07 kcal/mol

row,Sequence,relative binding free energy
1,AGATTCACGTGAGTCT,0.51 kcal/mol
2,AGTTTCACGTGTCGGT,0.32 kcal/mol
3,CTTGCCACGTGTTAGG,-0.08 kcal/mol
4,GTTTGCACGTGATATT,0.13 kcal/mol
5,GCAGTCACGTGGGCGG,-0.16 kcal/mol
6,GTGGGCACGTGAGACT,0.34 kcal/mol
7,GTGATCACGTGTCAGG,-0.04 kcal/mol
8,TAGATCACGTGTGGGC,0.27 kcal/mol
9,TGCTCCACGTGTGTGG,0.01 kcal/mol
10,GGAGTCACGTGAGCGT,0.2 kcal/mol
11,TGTCGCACGTGTAGTA,-0.05 kcal/mol
12,TAGGGCACGTGGTGCC,-0.04 kcal/mol
13,AGTGGCACGTGTTTAG,-0.03 kcal/mol
14,TTTTGCACGTGCTCGG,-0.17 kcal/mol
15,CTGGTCACGTGTTCGG,0.1 kcal/mol
16,GGTTTCACGTGGAGAG,0.23 kcal/mol
17,TTGGGCACGTGCTTGA,-0.2 kcal/mol
18,GTCGACACGTGTGATG,0.16 kcal/mol
19,TCTTACACGTGTTTGA,0.2 kcal/mol
20,GGGAACACGTGGTTTT,0.11 kcal/mol
21,TAATGCACGTGGGCGG,-0.12 kcal/mol
22,TAATACACGTGTTGGG,0 kcal/mol
23,GTTCGCACGTGGGATT,0 kcal/mol

row,Sequence,relative binding free energy
1,GTGTTCACGTGCTATG,0.15 kcal/mol
2,GTCAGCACGTGCGGGG,0 kcal/mol
3,GTGGGCACGTGGCCAG,-0.25 kcal/mol
4,GGATGCACGTGGGAGA,0.12 kcal/mol
5,AGAGGCACGTGCGGGT,-0.14 kcal/mol
6,ACGTTCACGTGTGGCT,0.11 kcal/mol
7,TTAATCACGTGATCTT,0.19 kcal/mol
8,CGTAGCACGTGGATGG,-0.16 kcal/mol
9,CAGTCCACGTGTGTGT,0.12 kcal/mol
10,TAGTGCACGTGTATTA,-0.04 kcal/mol
11,TTAAGCACGTGTTGTG,-0.11 kcal/mol
12,TTGGGCACGTGTGGCG,-0.09 kcal/mol
13,GGGTGCACGTGATGGT,0.2 kcal/mol
14,TAAGGCACGTGGTTAA,-0.12 kcal/mol
15,ACTTGCACGTGTTTAA,0.11 kcal/mol
16,AGGCGCACGTGTGGGG,0.02 kcal/mol
17,AAGATCACGTGCTGTG,0.08 kcal/mol
18,TTGATCACGTGCTTGA,0.04 kcal/mol
19,TGTGGCACGTGAGCAA,0.07 kcal/mol
20,TACATCACGTGTTGGG,0 kcal/mol
21,TTGCTCACGTGGTCAG,0.16 kcal/mol
22,ATGGTCACGTGGGCGA,-0.08 kcal/mol
23,AGTGGCACGTGGTATT,-0.22 kcal/mol
